Results as given in PubChem BioAssay AID881 (National Center for Advancing Translational Sciences (NCATS), 2007).
Screen size: about 110,000 compounds; about 610 (0.55%) were called active. This list was built around the results that the source calls inconclusive (neither active nor inactive); the mix of calls is not that of the screen. Calls follow the shape of the dose curve; as a rule, active = well fitted inhibition curve with a large enough effect; inconclusive = small, poorly fitted or top-dose-only effect; inactive = no such curve, though single readings can be large or run the other way. Where the call is inconclusive, the potency comes from a doubtful curve fit.

biological target: Polyunsaturated fatty acid lipoxygenase ALOX15B (Homo sapiens) (UniProt O15296); experiment: qHTS Assay for Inhibitors of 15-hLO-2 (15-human lipoxygenase 2); conditions: purified 15hLO-2, xylenol orange hydroperoxide absorbance; activity change, negative = inhibition: at 57.1 µM (top of the series) unless noted; also: nearly all actives have a fitted effect of over 60% in size
Sequence of UniProt O15296 (O15296 whole entry, looked up): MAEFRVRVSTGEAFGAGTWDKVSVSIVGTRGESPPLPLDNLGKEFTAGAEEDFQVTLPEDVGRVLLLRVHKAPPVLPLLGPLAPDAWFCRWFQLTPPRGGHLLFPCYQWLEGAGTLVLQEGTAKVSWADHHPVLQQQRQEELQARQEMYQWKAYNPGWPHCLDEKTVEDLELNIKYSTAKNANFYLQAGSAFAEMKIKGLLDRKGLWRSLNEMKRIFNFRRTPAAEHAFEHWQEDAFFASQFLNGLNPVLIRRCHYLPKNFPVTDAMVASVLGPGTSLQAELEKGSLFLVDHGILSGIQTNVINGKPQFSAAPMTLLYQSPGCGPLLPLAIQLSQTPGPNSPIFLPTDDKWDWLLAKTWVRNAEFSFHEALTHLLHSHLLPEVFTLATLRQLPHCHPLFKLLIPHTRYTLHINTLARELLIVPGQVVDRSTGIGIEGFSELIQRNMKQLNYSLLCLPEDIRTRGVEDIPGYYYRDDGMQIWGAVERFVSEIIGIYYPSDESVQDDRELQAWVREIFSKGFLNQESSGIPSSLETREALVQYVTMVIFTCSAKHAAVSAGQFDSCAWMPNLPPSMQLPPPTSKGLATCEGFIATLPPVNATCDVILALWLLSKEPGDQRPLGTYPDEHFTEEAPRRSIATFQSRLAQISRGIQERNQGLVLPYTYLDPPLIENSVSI
Method in brief: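 Read-out: hydroperoxide product oxidises ferrous iron, measured as xylenol orange complex via the 573-to-405 nm absorbance ratio after 30 min. Reaction: 50 nM enzyme, 15 min compound preincubation, 45 uM arachidonic acid, 90 min RT, Hepes pH 7.5 with Triton X-100.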
% is scaled to controls: 0 for no effect and ±100 for the full control effect; potency is read from the fitted curve at half-maximal effect; tags tell the direction and shape of the fitted curve.

Compound	activity change, negative = inhibition	Potency
CCCn1c(-c2ccc(F)cc2)nc2c(NC3CCN(Cc4ccccc4)CC3)nc(C)nc21	inactive: 54.8%	–
COc1ccc(S(=O)(=O)N2CCC(C(=O)N3CCc4ccccc4C3)CC2)cc1	inactive: -5.08%	–
C/C(N)=C(/C#N)C(=O)CSc1nnc(Nc2ccccc2C)s1	–	inconclusive: 20 µM [inhibitor, partial curve]
CCCCCCn1c(-c2ccco2)nc2oc3cc(OC)ccc3c(=O)c2c1=O	–	inconclusive: 25.1 µM [inhibitor, partial curve]
COc1ccccc1N1CCN(/N=C\c2ccc(C)o2)CC1	–	inconclusive: 0.1 µM [inhibitor, single point]
Cc1c(NC(=O)CN2C(=O)C3C4C=CC(C4)C3C2=O)c(=O)n(-c2ccccc2)n1C (centres undefined)	–	inconclusive: 0.199 µM [inhibitor, full curve]
CCn1c(CC(=O)Nc2ccc(C)cc2)nnc1SCC(=O)Nc1nc(C)cs1	–	inconclusive: 0.316 µM [inhibitor, full curve, poor fit]
O=S(=O)(c1ccc2c(c1)OCCO2)N1CCC(O)(c2ccc(Cl)cc2)CC1	inactive: -8.31%	–
Cc1ccc(-c2n[nH]c(=S)n2/N=C/c2cccn2C)cc1	–	inconclusive: 15.8 µM [inhibitor, partial curve]
O=C(Cc1csc(Nc2nc(=S)[nH]c3ccccc23)n1)NCc1ccc(Cl)cc1	–	inconclusive: 25.1 µM [inhibitor, partial curve]
O=C(CSc1nnnn1-c1ccccc1)N1CCc2ccccc2C1	inactive: -5.58%	–
C=CCSC1=N/C(=C\c2sccc2C)C(=O)S1	–	inconclusive: 31.6 µM [inhibitor, single point]
CCCOc1ccc(C(=O)N2CCCC2C(=O)O)cc1 (centres undefined)	inactive: 3.01%	–
N#C/C(=C\c1ccc(O)c(O)c1)C(=O)NCCCCc1ccccc1	–	active: 15.8 µM
CSc1nc2n(n1)C(c1cccc(F)c1)C(C(=O)Nc1ccc(C)cc1C)=C(C)N2 (centres undefined)	–	inconclusive: 31.6 µM [inhibitor, single point]
CCC(c1nnc(SCC(=O)Nc2nnc(-c3ccccc3)o2)n1Cc1ccccc1)N(C)C (centres undefined)	–	inconclusive: 0.316 µM [inhibitor, full curve, poor fit]
Nc1nc2c(s1)CCc1c-2cnn1-c1ccccc1	–	active: 1 µM
COc1ccc(C(=O)NC(=S)NCc2ccc(-c3nc4ccccc4o3)cc2)cc1OC	–	inconclusive: 12.6 µM [inhibitor, partial curve]
Cc1ccc(-c2ccc(CCC(=O)O)n2-c2ccc(O)cc2)cc1	–	inconclusive: 20 µM [inhibitor, partial curve]
O=C(O)Cn1cccc1C(=O)c1ccccc1	–	inconclusive: 31.6 µM [inhibitor, single point]
CC1CCc2c(sc3nc(SCC(=O)NCc4ccco4)nc(N)c23)C1 (centres undefined)	inactive: 0.797%	–
O=c1[nH]c(=O)n(Cc2ccco2)c2c1C(C(F)(F)F)(C(F)(F)F)N=C(Cc1ccccc1)N2	inactive: -7.51%	–
Cc1c(Cl)cccc1NC(=S)NCCC(C)C	–	inconclusive: 25.1 µM [inhibitor, single point]

Compound	activity change, negative = inhibition	Potency
CC1=CC(C)(C)N2C(=O)C3(C(C#N)=C(N)Oc4cc(O)ccc43)c3cccc1c32 (centres undefined)	–	inconclusive: 25.1 µM [inhibitor, single point]
COC(=O)N1CCC2(CCN(C(=O)NC(C)C)CC2)CC1	inactive: 0.343%	–
O=C(CNC(=O)c1ccc([N+](=O)[O-])cc1)N/N=C\c1ccc(OC(=O)c2ccccc2)cc1	–	inconclusive: 12.6 µM [inhibitor, partial curve]
CCN1CCN(C2=NC(=O)/C(=C/c3ccc(C)o3)S2)CC1	–	inconclusive: 12.6 µM [inhibitor, partial curve]
Oc1cc2c(cc1O)C1c3ccc(O)c(O)c3OCC1(O)C2 (centres undefined)	–	inconclusive: 0.398 µM [inhibitor, single point]
COc1ccc(OC)c(C2C(C(=O)c3sc(C)nc3C)=C(O)C(=O)N2CCN2CCOCC2)c1 (centres undefined)	inactive: -9.04%	–
N#C/C(=C/c1ccc(N2CCCCCC2)o1)c1cccc(F)c1	–	active: 7.94 µM
O=C(NNC(=O)c1sc2cccc(Cl)c2c1Cl)Nc1ccccc1	–	inconclusive: 15.8 µM [inhibitor, partial curve]
Cc1cc(C)c(NC(=O)Cn2c(=O)n(Cc3ccco3)c(=O)c3ccccc32)c(C)c1	–	inconclusive: 7.94 µM [inhibitor, single point]
O=C1c2[nH]nc(-c3ccccc3O)c2C(c2cccc(O)c2)N1Cc1ccco1 (centres undefined)	–	inconclusive: 39.8 µM [inhibitor, single point]
O=C(Cc1coc2ccc3ccccc3c12)Nc1nnc(C2CC2)s1	inactive: -19.1%	–
O=C(O)CCc1ccc(-c2ccc(F)cc2)n1CC(=O)O	inactive: -6.17%	–
S=C(Nc1cccc(Cl)c1)NC1CCCCC1	–	inconclusive: 25.1 µM [inhibitor, single point]
C=CCN(CC=C)S(=O)(=O)c1ccc(NC(=S)NC(=O)/C=C/c2ccc(C)cc2)cc1	–	inconclusive: 15.8 µM [inhibitor, partial curve]
CCOC(=O)C1=C(C)n2c(s/c(=C/c3cccc([N+](=O)[O-])c3)c2=O)=NC1c1ccc(O)c(OC)c1 (centres undefined)	–	inconclusive: 12.6 µM [inhibitor, partial curve]
CCCSc1ncc(Cl)c(C(=O)Nc2ccc(S(=O)(=O)N3CC(C)OC(C)C3)cc2)n1 (centres undefined)	inactive: 0.406%	–
CC(C)CNC(=S)NC(=O)c1ccc([N+](=O)[O-])cc1	–	inconclusive: 20 µM [inhibitor, partial curve]
O=C(Nc1cccc(F)c1)N1CC[C@@]2(CCCN(C(=O)c3ccco3)C2)C1	inactive: -0.985%	–
Cc1cccc(NC(=O)CSc2nc3ccc(N4C(=O)c5ccccc5C4=O)cc3s2)c1C	–	inconclusive: 20 µM [inhibitor, partial curve]
Cc1nnc(NC(=O)CSc2nc3c(c(=O)n2CCc2ccccc2)SC(C)C3)s1 (centres undefined)	–	inconclusive: 25.1 µM [inhibitor, single point]
COc1cccc(C2CC(=O)N3CN(c4ccccc4F)CSC3=C2C#N)c1 (centres undefined)	–	inconclusive: 31.6 µM [inhibitor, single point]
Cc1ccccc1CNc1ncnc2c1ncn2[C@@H]1O[C@@H](CO)[C@H](O)[C@@H]1O	inactive: 8.78%	–
O=C(CN1CCCCCC1)Nc1ccccc1F	inactive: -9.94%	–

Compound	activity change, negative = inhibition	Potency
O=[N+]([O-])c1ccc(Cl)c(CNc2ncnc3c2ncn3[C@@H]2CCCCO2)c1	inactive: -7.43% [at 11.4 µM]	–
O=c1ccn(C2OC(COP(=O)(O)OP(=O)(O)OP(=O)(O)O)C(O)C2O)c(=O)[nH]1 (centres undefined)	inactive: -2.9%	–
Cc1cc(C(=O)CSc2nnc(-c3ccccc3F)o2)c(C)n1Cc1cccs1	–	inconclusive: 25.1 µM [inhibitor, partial curve]
COC1(OC)N=C(NC(=O)Nc2ccccc2)C2(C#N)C(c3ccccc3)C12C#N (centres undefined)	–	inconclusive: 12.6 µM [inhibitor, partial curve]
CC(C)C(C(=O)O)N1C(=O)/C(=C/C=C/c2ccco2)SC1=S (centres undefined)	–	inconclusive: 31.6 µM [inhibitor, single point]
O=C(c1ccco1)N1CCN(C2=NS(=O)(=O)c3ccccc32)CC1	inactive: -0.84%	–
C=CCN1C(=O)/C(=C2/Sc3ccccc3N2CCCS(=O)(=O)O)SC1=S	–	inconclusive: 20 µM [inhibitor, partial curve]
COC(=O)c1cc(NC(=O)c2cccc(C(F)(F)F)c2)c(=O)oc1C/C=N/OCc1cccc(Cl)c1Cl	–	inconclusive: 25.1 µM [inhibitor, partial curve]
COc1ccc2c(c1)c1nnc(SC)nc1n2C	inactive: -4.82%	–
O=C(CC12CC3CC(C1)CC(CC(=O)NC1=NCCS1)(C3)C2)NC1=NCCS1	inactive: 27.1% [at 11.4 µM]	–
N#C/C=C\Oc1ccc(Cl)cc1N	–	inconclusive: 12.6 µM [inhibitor, partial curve]
Cc1ccc(Cl)c(OCC(=O)Nc2ccc3c(c2)OCCO3)c1	–	inconclusive: 3.98 µM [inhibitor, single point]
CCOC(=O)NC1(Nc2ccc(Cl)cn2)Oc2ccccc2O1	–	inconclusive: 15.8 µM [inhibitor, partial curve]
CC(=S)/C=C1\Sc2ccccc2N1C	–	inconclusive: 7.94 µM [inhibitor, partial curve]
O=[N+]([O-])c1cccc(/C=N/n2c(COc3ccccc3)n[nH]c2=S)c1	–	inconclusive: 39.8 µM [inhibitor, single point]
COC(=O)/C=c1/sc2nc3ccccc3n2c1=O	–	inconclusive: 31.6 µM [inhibitor, single point]
CCCCCCSC1=C(C#N)C(c2ccc(C)o2)CC(=O)N1 (centres undefined)	–	inconclusive: 12.6 µM [inhibitor, partial curve]
C[C@H]1C[C@@H]2[C@H]3CCC4=CC(=O)C=C[C@@]4(C)[C@@]3(Cl)[C@@H](O)C[C@]2(C)[C@]1(OC(=O)c1ccco1)C(=O)CCl	–	inconclusive: 10 µM [inhibitor, partial curve]
Oc1cccc(/C=N/c2c(-c3ccco3)nc3ccccn23)c1	–	inconclusive: 10 µM [inhibitor, partial curve]
O=C1c2ccccc2NC(c2ccc(-c3ccc(Br)cc3)o2)N1O (centres undefined)	–	inconclusive: 5.01 µM [inhibitor, partial curve]
O=C(O)C1=CC(=C(c2ccc(O)c(C(=O)O)c2)c2ccc(O)c(C(=O)O)c2)C=CC1=O	–	active: 7.94 µM
N#Cc1cc2c([nH]c1=S)CCCCCC2	–	active: 25.1 µM
Cc1ccccc1CN1CCNC(=O)C1CC(=O)O (centres undefined)	inactive: -12.4%	–
